# PubChem BioAssay AID1347073 (National Center for Advancing Translational Sciences (NCATS), 2019)
# Hit rate of the full screen: of about 45,000 compounds, about 200 (0.44%) were called active. Not shown: some 7% with an inconclusive outcome. Calls come from the whole dose curve; as a rule, active = well fitted activation curve with a large enough effect; inconclusive = small, poorly fitted or top-dose-only effect; inactive = no such curve, though single readings can be large or run the other way. The list shows a part of the results.
# Experiment: qHTS of TDP-43 Inhibitors: NCGC Sytravon Library Screen; note: 0% is about no effect; nearly all actives have a fitted effect of over 55% in size
# Settings: yeast TDP-43 toxicity rescue, BacTiter-Glo growth, 24 h; series mostly up to 46.1 µM; growth rescue (activation): at the top concentration
# Summary of the method: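 TDP-43-expressing yeast, pregrown in raffinose, seeded at OD600 0.02 in galactose medium with compound for 24 hr at 30 deg C. Growth read by BacTiter-Glo luminescence, so rescue of toxicity appears as activation.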
row,SMILES,growth rescue (activation)
1,CC(=O)Nc1ccc(C2=NNC(=NCC3CCCO3)SC2)cc1 (centres undefined),inactive: 8.51%
2,Cn1c(CC(=O)Nc2ccccc2F)nnc1SCC(=O)Nc1nncs1,inactive: -5.58%
3,COC(=O)CCc1sc(Nc2ccc(Br)cc2)nc1-c1ccc(OC)cc1,inactive: 29.9%
4,CCOC(=O)c1c(C)n(CC(O)CN(C)C)c2cc(Br)c(OC)cc12 (centres undefined),inactive: -3.44%
5,OC(COCC1COc2ccccc2O1)CN1CCN(c2ccccn2)CC1 (centres undefined),inactive: 9.63%
6,CN1CCN(Cc2nc3ccccc3c(=O)n2Cc2nc(-c3ccc([N+](=O)[O-])cc3)cs2)CC1,inactive: -17.4%
7,O=C(CSc1nc2ccccc2s1)NNC(=S)Nc1ccc(Br)cc1,inactive: 41.5%
8,CCOc1cc(C2C3=C(CCCC3=O)N(C)C3=C2C(=O)CCC3)cc(Cl)c1O,inactive: 6.55%
9,NC(=O)C1Cc2ccccc2CN1S(=O)(=O)c1ccc(Cl)s1 (centres undefined),inactive: 8.91%
10,Cc1cccc(C(=O)Nc2cccc(OCC(=O)O)c2)c1,inactive: 0.0277%
11,O=C(COC(=O)c1ccc(O)cc1)Nc1ccc2c(c1)OCO2,inactive: 8.01%
12,O=C(Nc1nnc([C@H]2C[C@H](O)[C@@H](CO)O2)s1)Nc1cccc(Cl)c1Cl,inactive: 10.3%
13,C=CCn1c(O)c(N=O)c2cc(C)ccc21,inactive: 13.5%
14,Cn1cccc1/C=N/N1CCN(Cc2ccc(Cl)cc2)CC1,inactive: 0.628%
15,COc1ccc(CNC(=O)c2sc3nc4n(c(=O)c3c2C)CCCC4)cc1,inactive: 17.3%
16,Cc1cc(C(=O)NC2CCCc3c2cnn3-c2ccccc2F)nc(C)n1 (centres undefined),inactive: 5.34%
17,Cc1ccc(C2C(C(=O)c3cc4ccccc4o3)=C(O)C(=O)N2c2cc(C)on2)cc1 (centres undefined),inactive: -7.13%
18,Cc1cc(C)n(CC(=O)N/N=C/c2ccc([N+](=O)[O-])s2)n1,inactive: -73%
19,O=C(Cc1n[nH]c(=O)[nH]c1=O)N/N=C/c1cccc(Cl)c1,inactive: 20.5%
20,Cn1c(N)c(C(=O)COC(=O)C2CCN(S(=O)(=O)c3cccs3)CC2)c(=O)n(C)c1=O,inactive: -21%
21,COc1cccc(/C=C2/NC(=O)N(CC(=O)Nc3ccc(C)cc3)C2=O)c1OCc1cccc(C(=O)O)c1,inactive: -3.99%
22,O=C(NC(=S)NCC1CCCO1)c1ccc(Br)o1 (centres undefined),inactive: 25.3%
23,COc1cc(/C=N/NC(=O)c2nonc2C)ccc1O,inactive: -3.15%
24,NC(=O)c1nsc(C(=O)N(Cc2ccccc2Cl)C(C(=O)NCC2CCCO2)c2ccc(O)cc2)c1N (centres undefined),inactive: 17.1%
25,O=C(NCCCN1CCCC1=O)c1ccccc1OCc1ccc(Cl)cc1Cl,inactive: -12.4%
26,COc1ccc(CNC(=O)Cn2ccc([N+](=O)[O-])n2)cc1OC,inactive: -10.5%
27,CCc1c(C)nc(SCC(=O)Nc2ccc3c(c2)OCCO3)[nH]c1=O,inactive: -6.91%
28,COc1cccc(CC2(CO)CCN(S(=O)(=O)c3ccc(OC)cc3OC)CC2)c1,inactive: -6.11%
29,O=C(Nc1ccccc1F)c1csc(COCCO)n1,inactive: 14%
